The campaign covered roughly 48,000 compounds. About 450 (0.94%) were called active. About 19% were inconclusive and are not listed. The call rests on the fitted dose curve; in most records, active means well fitted inhibition curve with a large enough effect; inconclusive means small, poorly fitted or top-dose-only effect; inactive means no such curve, though single readings can be large or run the other way. This is one part of the list.
Experiment: Primary qHTS for Identification of Small Molecule Inhibitors of Huntingtin Promoter Activity; further: nearly all actives have a fitted effect of over 50% in size
Details: HEK293 HTT promoter firefly luciferase reporter (activity 0% = vehicle and -100% = no light), 24 h; series mostly up to 57.5 µM; activity change, negative = inhibition: at the top concentration
Method in brief: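 HEK293 Fluc reporter, 2,500 cells/well, 24 h pre-culture; cpds up to 57.5 uM final, 24 h 37 degrees C; Dual-Glo, 10 min RT; normalized vehicle = 0%, zero RLU = -100%.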
Potency means the concentration at half of the fitted maximal effect.

| Structure (SMILES) | activity change, negative = inhibition | Potency |
| --- | --- | --- |
| CN1CC(=O)Nc2cc(C(=O)O)ccc21 | inactive: -10.9% | – |
| COc1ccc(OC)c(NC(=O)Cn2c(=O)cc(C)c3c(C)nn(-c4cccc(Cl)c4C)c32)c1 | inactive: -19.6% | – |
| CCOc1ccccc1C(=O)Nc1ccc(S(=O)(=O)N(Cc2ccccc2)c2ccccc2)cc1 | inactive: -11.3% | – |
| CCOC(=O)c1ccccc1NC(=O)Cn1ccn2nc(-c3ccc(OCC)cc3)cc2c1=O | inactive: -10.9% | – |
| Cc1ccccc1-c1noc(-c2nnn(-c3ccccc3C)c2N)n1 | inactive: 78.5% | – |
| Cc1ccc(-n2cc(C(=O)OCc3ccc(F)c(F)c3)c3ccccc3c2=O)cc1 | inactive: -16.7% | – |
| CCCN1Cc2cccc(C(=O)Nc3ccccc3C(=O)OC)c2C1=O | inactive: -23.9% | – |
| CCOc1ccc(NC(=O)CN2CCN(CC(=O)Nc3ccc(F)cc3F)CC2)cc1 | inactive: -5.81% | – |
| COc1cc(C(=O)N2CCN(C(=O)COc3cccc(C)c3)CC2)cc(OC)c1OC | inactive: 2.29% | – |
| COc1ccc(N2CCN(C(=O)c3cnn(-c4ccc(OC)cc4)c3C3CCN(C(=O)OC(C)(C)C)CC3)CC2)cc1 | inactive: -0.553% | – |
| Cc1cccc(C(=O)N(Cc2ccccc2F)C2CCS(=O)(=O)C2)c1 (centres undefined) | inactive: 2.59% | – |
| COc1ccc(Cc2nc3c4cnn(-c5cccc(F)c5)c4ncn3n2)cc1 | inactive: -16.2% | – |
| COC(=O)c1c(NC(=O)COc2cccc(C(F)(F)F)c2)sc2c1CCCC2 | inactive: -5.28% [at 11.5 µM] | – |
| CCCNC(=O)N1CCCN(S(=O)(=O)c2ccc3c(ccn3CC)c2)CC1 | inactive: -31.8% | – |
| Cc1c(Cl)cccc1-c1ccc(/C=C(\C#N)c2nc3ccccc3[nH]2)o1 | inactive: -16.6% | – |
| CCCCOc1cccc(C(=O)N2CCN(CCc3ccncc3)CC2)c1 | inactive: -15% | – |
| CCOC(=O)c1c(NC(=O)c2ccc(S(=O)(=O)N(CC)CC)cc2)sc2c1CCCCC2 | inactive: -5.47% | – |
| CCc1ccc(CN(Cc2cn[nH]c2-c2ccc(OC)cc2)C(=O)Nc2ccc(Br)cc2)cc1 | – | active: 14.1 µM |
| CN(C)c1ccc(C(CNS(=O)(=O)c2ccc(F)cc2F)N2CCOCC2)cc1 (centres undefined) | inactive: -13% | – |
| Cc1ccc(CCNC(=O)CN(c2ccc(C(C)C)cc2)S(=O)(=O)c2c(C)nn(C)c2C)cc1 | inactive: 10.9% | – |
| CCOc1ccc(Cc2cc([C@@H]3O[C@H](CO)[C@@H](O)[C@H](O)[C@@H]3O)ccc2Cl)cc1 | inactive: -2.72% | – |
| CCN(CC)C(=O)CSc1nc2cc3c(cc2c(=O)n1CCCC(=O)NCc1ccc(OC)cc1)OCO3 | inactive: -17.4% | – |
| O=C(NCCC1=CCCCC1)c1ccc2c(c1)N(Cc1ccccc1)C(=O)c1ccccc1S2=O (centres undefined) | inactive: -29.8% | – |
| CCn1c(SCC(=O)Nc2c(C)cccc2C)nnc1-c1nonc1NC(C)=O | inactive: -19.3% | – |

| Structure (SMILES) | activity change, negative = inhibition | Potency |
| --- | --- | --- |
| Cc1ccc(C(=O)N2CCCCC2CCN2CCCCC2)cc1 (centres undefined) | inactive: -0.494% | – |
| Cc1ccc(O)cc1 | inactive: -2.31% | – |
| Cc1cccc(NC(=O)Cn2c(=O)c3cccn3c3ccccc32)c1C | inactive: -11.7% | – |
| COc1cc2c(cc1-c1c(C)noc1C)ncc1[nH]c(=O)n([C@H](C)c3ccccn3)c12 | inactive: -32.9% | – |
| COc1ccc(-c2csc(-c3c(N)c(C(=O)c4ccccc4)n4ccccc34)n2)cc1OC | inactive: -8.91% | – |
| COc1ccccc1N1CCN(C(=O)CSc2nc3ccccc3nc2Cc2ccc(C)cc2)CC1 | inactive: -0.144% | – |
| COc1cc(NS(=O)(=O)c2cc(Br)cc3c2N(C(=O)C2CC2)CC3)cc(OC)c1 | – | active: 15.8 µM |
| CN(C)c1nc(N(C)C)nc(N(C)C)n1 | inactive: 13.5% | – |
| CCN(CCCNC(=O)c1nn(-c2ccc(OC)c(Cl)c2)c(=O)c2c1c1ccccc1n2C)c1ccccc1 | inactive: -10.2% | – |
| Cc1ccc(CN2CCN(C3CCN(S(=O)(=O)N(C)C)CC3)C(=O)C2=O)cc1 | inactive: -10.9% | – |
| CC1CCN(C(=O)Cn2c(SCC(=O)Nc3ccc(F)cc3)nc3ccccc32)CC1 | inactive: -30.2% | – |
| COc1ccc(OC)c(CNC(=O)CSc2c3c(nc4cc(Cl)ccc24)CCCC3)c1 | inactive: -11.5% | – |
| CCN(Cc1ccccc1)C(=O)Cn1c(=O)n(-c2cccc(C)c2)c(=O)c2c1c1cc(OC)ccc1n2C | inactive: -11.9% | – |
| CCOC(=O)C1=C(CN2CCN(C)CC2)NC(=O)NC1c1ccc(F)cc1 (centres undefined) | inactive: -2.43% | – |
| COc1ccc(N2C(N)=C(C#N)C(c3cc(CN4CCOCC4)cs3)C3=C2CCCC3=O)cc1 (centres undefined) | inactive: -6.14% | – |
| Cc1nc2c(C(=O)NCCc3ccc(Cl)cc3)cnn2c(C)c1Cc1ccc(F)cc1 | inactive: -28.6% | – |
| CC(C)NC(=O)C1CCN(C(=O)c2cnn(-c3ccccc3)c2-n2cccc2)CC1 | inactive: -12.6% | – |
| COc1ccc(NS(=O)(=O)c2ccc(-n3cccn3)cc2)cc1OC | – | active: 7.94 µM |
| CCCSc1nc2sc3c(c2c(=O)n1-c1ccc(C)c(Cl)c1)CCN(C(C)=O)C3 | inactive: -31.4% | – |
| CN(C(=O)c1cc2nc(-c3ccc4c(c3)OCO4)cc(C(F)(F)F)n2n1)c1ccc(OC(F)(F)F)cc1 | inactive: 6.37% | – |
| Cn1nc(C(=O)NCCc2ccc(Cl)cc2)c2c1-c1ccccc1SC2 | inactive: -11.4% | – |
| CSc1nnc2n(-c3cccc(C)c3)c(=O)c3c4c(sc3n12)CCCC4 | inactive: -3.82% | – |
| COc1ccc(S(=O)(=O)c2c(O)c(C)cc(NC(=O)c3ccccc3)c2C(C)C)cc1 | inactive: -15.5% | – |
| COc1ccccc1N1CCN(C(=O)c2ccc(Nc3nc4ccccc4n4nnnc34)cc2)CC1 | inactive: -24.7% | – |

| Structure (SMILES) | activity change, negative = inhibition | Potency |
| --- | --- | --- |
| CCn1c(=O)n(CC)c2cc(N3CCCC3)c(NC(=O)Nc3cc(C)cc(C)c3)cc21 | inactive: -16.4% | – |
| Cc1cccc(-c2nnc(SCC(=O)N3CCCCC3)o2)c1 | inactive: 71.3% | – |
| Cc1cccn2c(=O)cc(COc3cccc(NC(=O)c4cccc(Cl)c4)c3)nc12 | inactive: -0.925% | – |
| O=C(Nc1ccccc1F)c1oc2ccccc2c1NC(=O)c1c(F)cccc1F | inactive: -19.3% | – |
| Cc1c(C(=O)Nc2cccc(-c3nc4ccccc4s3)c2)oc2ccc(F)cc12 | inactive: 6.19% | – |
| COc1cc(-c2nc(C(N)=O)c3c(n2)n(-c2cccc(C)c2)c(=O)n3C)cc(OC)c1OC | inactive: -8.55% | – |
| CCn1c(CN2CCCCC2)nc2cc(NC(=O)c3cccc([N+](=O)[O-])c3)ccc21 | inactive: -7.43% | – |
| Cc1ccc(CNC(=O)c2nn(C)c3c2CSc2ccc(C)cc2-3)cc1 | inactive: -28.8% | – |
| COC(=O)c1ccccc1NC(=O)c1ccc(=O)n(Cc2cccc(C)c2)c1 | inactive: -21.5% | – |
| Cc1ccc(CCNC(=O)CSCc2nc(-c3ccc(C)cc3)oc2C)cc1 | inactive: -28.4% | – |
| CC(C)c1ccc(NC(=O)Cn2c3ncccc3c(=O)n2-c2ccccc2)cc1 | inactive: -14.3% | – |
| CC(C)c1ccc(N2C(=O)CSC23C(=O)N(Cc2ccccc2)c2ccccc23)cc1 (centres undefined) | inactive: -16.3% | – |
| Cc1cc(NS(=O)(=O)c2ccc3oc(=O)c4ncn(C)c4c3c2)ccc1Br | inactive: -11.4% | – |
| Cc1ccc(NC(=O)Cn2c(=O)n(Cc3nc(C)no3)c(=O)c3cc4c(cc32)OCO4)cc1 | inactive: -18.5% | – |
| O=C(/C=C/c1ccccc1Cl)Nc1nc(-c2cccs2)ns1 | inactive: 33.3% | – |
| COc1ccc(NC(=O)N2CCN(S(=O)(=O)c3ccc4c(ccn4C)c3)CC2)c(OC)c1 | inactive: -27.6% | – |
| COc1cccc(CNC(=O)C(C)n2c(=O)cc(-c3ccccc3)c3c(C)nn(C)c32)c1 (centres undefined) | inactive: 0% | – |
| O=C(Cn1cc(SCc2c(F)cccc2Cl)c2ccccc21)N1CCCC1 | inactive: 9.94% | – |
| CCCC(CCC)C(=O)NC1CC(=O)N(c2ccc3c(c2)OCCO3)C1 (centres undefined) | inactive: -17.2% | – |
| Cc1ccc(/C=C(\C#N)c2nc3ccccc3c(=O)[nH]2)cc1 | inactive: 5.22% | – |
| COCCOC(=O)c1c(-c2ccccc2)c(-c2ccccc2)nn(C)c1=O | inactive: -5.16% | – |
| CCOc1ccc(CC(=O)Nc2c(C(=O)c3ccccc3)oc3ccc(OC)cc23)cc1OCC | inactive: -6.57% | – |
| CCc1ccccc1NC(=O)Cn1c(=O)n(Cc2ccc(OC)cc2)c(=O)c2oc3ccccc3c21 | inactive: 6.71% | – |
| CCOc1ccc(CC(=O)NCC(c2cccs2)S(=O)(=O)c2ccc(F)c(C)c2)cc1 (centres undefined) | inactive: -7.42% | – |

| Structure (SMILES) | activity change, negative = inhibition | Potency |
| --- | --- | --- |
| O=C(COc1ccc(Cl)cc1)Nc1ccccc1OCc1cc(=O)n2ccccc2n1 | inactive: -2.38% | – |
| Cc1ccc(NC(=O)C2CC(=O)N(c3ccc(OC(C)C)cc3)C2)cc1 (centres undefined) | inactive: 1.12% | – |
| CCOC(=O)c1c(C)c(-c2ccccc2)n(CC(=O)NC(CC)Cc2ccccc2)c1C (centres undefined) | inactive: -5.68% | – |
| CCN(CC)c1ccc(NC(=O)C2CCN(S(=O)(=O)c3cnc[nH]3)CC2)c(C)c1 | inactive: -14.4% | – |
| COc1ccccc1N1CCN(C(=O)c2cnn(-c3ccc(F)cc3F)c2C2CCNCC2)CC1 | inactive: -15.8% | – |
| COc1cccc(C(=O)Nc2ccc3oc(-c4cccc5c(Br)cccc45)nc3c2)c1 | inactive: 2.21% | – |
| Cc1ccc(Nc2nnc(-c3ccc(C)c(S(N)(=O)=O)c3)c3ccccc23)cc1 | inactive: -33.4% | – |
| CCc1ccccc1N(C)C(=O)c1ccc2c(=O)n3c(nc2c1)CCCCC3 | inactive: -15.9% | – |
| COc1ccc(S(=O)(=O)NCC(c2ccc(N(C)C)cc2)N2CCc3ccccc32)cc1OC (centres undefined) | inactive: -4.92% | – |
| Cc1cccc(OCC(=O)Nc2cccc3cccnc23)c1C | inactive: 1.1% | – |
| COc1ccc(N2CCN(C(=O)CCc3c(C)nc4cc(-c5ccc(OC)cc5OC)nn4c3C)CC2)cc1 | inactive: -22.7% | – |
| CCOC(=O)c1c(NC(=O)c2ccccc2OCC)sc2c1CCC(CC)C2 (centres undefined) | inactive: 0.175% | – |
| Cc1nnc(N2C(=O)c3oc4ccccc4c(=O)c3C2c2ccc(Cl)cc2)s1 (centres undefined) | inactive: -16.3% | – |
| Cc1ccc2c(c1)C(=O)OC(C(=O)Nc1ncc(Cc3ccc(Cl)cc3)s1)C2 (centres undefined) | inactive: 8.83% | – |
| O=S(=O)(O)c1ccc2cc(N=Nc3cc(S(=O)(=O)O)c4cccnc4c3O)ccc2c1 | inactive: -9.52% | – |
| Cc1cccc(C)c1-n1ncc(C(=O)NC2CCCC2)c1C1CCN(C(=O)OC(C)(C)C)CC1 | inactive: -11% | – |
| CCOc1ccc(NC(=O)NCc2cccn2Cc2ccccc2)cc1 | inactive: -7.71% | – |
| CC(=O)O[C@]1(C(C)=O)CC[C@H]2[C@@H]3C[C@H](C)C4=CC(=O)CC[C@]4(C)[C@H]3CC[C@@]21C | inactive: -7.22% | – |
| O=C(COc1ccc(Cl)cc1Cl)Nc1cccc2cccnc12 | inactive: 6.41% | – |
| Cc1ccc2oc(-c3ccc(C)c(NC(=O)/C=C/c4ccc(Cl)cc4)c3)nc2c1 | inactive: 11.2% | – |
| COc1ccc(Nc2c(-c3ccc(C)o3)nc3cc(C)ccn23)cc1 | inactive: 45.8% | – |
| Cc1ccc2[nH]c3c(=O)n(CC(=O)N(CCN(C)C)Cc4ccccc4)ncc3c2c1 | inactive: -5.31% | – |
